# Reference: the supplement of paper PMC8728848
# The list shows a part of the results.
# B1: PX15618A-bth-503-24-503 (Bacteroides thetaiotaomicron) (protein)
# chain: NKSEDKLSGDDFWAQGNETNAEAFLLSIYNSFRNATMSQRPFLTYSGDMRCAPITAYSTGDKYVAYLANNDMGELRNTYPDDARGGLIMQWDVFYTAIQDANILLAEIDKVPGMDELKRSRFKAEAIFMRSLSYFFIVRAFGDVPYYTNAYNEAPLPRTNMVIVLQNCLADLQPLLDDDPGAEVLPWSYSSYSSKGIRASRGSVIALMMHINLWLVQFDAQNKEQYYRNVVSLGEELERNNGAYSLLDINRSSVIFAGGSDEGLFEIAQNINFNEIFMMNAKFSDNVSYSCLNKSMPLFCYSGDYLMTLFPMYEDDARKELWFDEKIYSTSVSSSAPKEIKKFWNIDTYGNGTITSNSGNQIVFRYAGALLLYAEALAALGTNDTKACELLNRVRNRAHASEINTSGSELMDAIFWERCRELIGEGHYYYDLVRTGKVYNRNYCMNPMTRTNFNVGAWTWPIHRNALKNNTQIGLNLFWE
# Experiments:
# Test in all cases: glycan array binding signal (z-score within array); higher = stronger binding
# Conditions in all cases: glycan notation: IUPAC condensed, linker removed
# [1] = biological target: Neu5Ac(a2-3)Gal(b1-3)GlcNAc(b1-2)Man(a1-3)[GlcNAc(b1-4)][Neu5Ac(a2-3)Gal(b1-3)GlcNAc(b1-2)Man(a1-6)]Man(b1-4)GlcNAc(b1-4)GlcNAc
# Summary of the method: (§1)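 Columns mapping to the same glycan were averaged after glycan names were converted to IUPAC-condensed notation. The data come from 3228 arrays in the Consortium for Functional Glycomics database, limited to those with an available protein sequence. Binding is reported as a within-array Z-score averaged across arrays of one protein sequence and across linkers.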
# [2] = biological target: Neu5Ac(a2-3)Gal(b1-3)GlcNAc(b1-2)Man(a1-3)[Neu5Ac(a2-3)Gal(b1-3)GlcNAc(b1-2)Man(a1-6)]Man(b1-4)GlcNAc(b1-4)GlcNAc
# Summary of the method: as §1
# [3] = biological target: Neu5Ac(a2-3)Gal(b1-3)GlcNAc(b1-3)Gal(b1-3)GlcNAc
# Summary of the method: as §1
# [4] = biological target: Neu5Ac(a2-3)Gal(b1-3)GlcNAc(b1-3)Gal(b1-4)GlcNAc
# Summary of the method: as §1
# [5] = biological target: Neu5Ac(a2-3)Gal(b1-3)GlcNAc(b1-3)GalNAc
# Summary of the method: as §1
# [6] = biological target: Neu5Ac(a2-3)Gal(b1-3)GlcNAc(b1-4)Gal(b1-4)Glc
# Summary of the method: as §1
# [7] = biological target: Neu5Ac(a2-3)Gal(b1-3)GlcNAc(b1-6)GalNAc
# Summary of the method: as §1
# [8] = biological target: Neu5Ac(a2-3)Gal(b1-3)GlcNAc6S
# Summary of the method: as §1
# [9] = biological target: Neu5Ac(a2-3)Gal(b1-3)[Fuc(a1-4)]GlcNAc
# Summary of the method: as §1
# [10] = biological target: Neu5Ac(a2-3)Gal(b1-3)[Fuc(a1-4)]GlcNAc(b1-3)Gal(b1-3)[Fuc(a1-4)]GlcNAc
# Summary of the method: as §1
# [11] = biological target: Neu5Ac(a2-3)Gal(b1-3)[Fuc(a1-4)]GlcNAc(b1-3)Gal(b1-4)[Fuc(a1-3)]GlcNAc
# Summary of the method: as §1
# [12] = biological target: Neu5Ac(a2-3)Gal(b1-3)[GlcNAc(b1-6)]GalNAc
# Summary of the method: as §1
# [13] = biological target: Neu5Ac(a2-3)Gal(b1-3)[Neu5Ac(a2-6)]GalNAc
# Summary of the method: as §1
# [14] = biological target: Neu5Ac(a2-3)Gal(b1-3)[Neu5Ac(a2-6)]GlcNAc(b1-3)[Fuc(a1-3)[Gal(b1-4)]GlcNAc(b1-6)]Gal(b1-4)Glc
# Summary of the method: as §1
# [15] = biological target: Neu5Ac(a2-3)Gal(b1-3)]Neu5Ac(a2-3)Gal(b1-4)]GlcNAc
# Summary of the method: as §1
# Neu5Ac(a2-3)Gal(b1-4)Glc = biological target: Neu5Ac(a2-3)Gal(b1-4)Glc
# Summary of the method: as §1
# [16] = biological target: Neu5Ac(a2-3)Gal(b1-4)GlcNAc
# Summary of the method: as §1
# [17] = biological target: Neu5Ac(a2-3)Gal(b1-4)GlcNAc(b1-2)Man
# Summary of the method: as §1
# [18] = biological target: Neu5Ac(a2-3)Gal(b1-4)GlcNAc(b1-2)Man(a1-3)[GlcNAc(b1-4)][Neu5Ac(a2-3)Gal(b1-4)GlcNAc(b1-2)Man(a1-6)]Man(b1-4)GlcNAc(b1-4)GlcNAc
# Summary of the method: as §1
# [19] = biological target: Neu5Ac(a2-3)Gal(b1-4)GlcNAc(b1-2)Man(a1-3)[Neu5Ac(a2-3)Gal(b1-4)GlcNAc(b1-2)Man(a1-6)]Man(b1-4)GlcNAc(b1-4)GlcNAc
# Summary of the method: as §1
# [20] = biological target: Neu5Ac(a2-3)Gal(b1-4)GlcNAc(b1-2)Man(a1-3)[Neu5Ac(a2-3)Gal(b1-4)GlcNAc(b1-2)Man(a1-6)]Man(b1-4)GlcNAc(b1-4)[Fuc(a1-6)]GlcNAc
# Summary of the method: as §1
# [21] = biological target: Neu5Ac(a2-3)Gal(b1-4)GlcNAc(b1-2)Man(a1-3)[Neu5Ac(a2-6)Gal(b1-4)GlcNAc(b1-2)Man(a1-6)]Man(b1-4)GlcNAc(b1-4)GlcNAc
# Summary of the method: as §1
# [22] = biological target: Neu5Ac(a2-3)Gal(b1-4)GlcNAc(b1-2)[Neu5Ac(a2-3)Gal(b1-4)GlcNAc(b1-4)]Man(a1-3)[GlcNAc(b1-4)][Neu5Ac(a2-3)Gal(b1-4)GlcNAc(b1-2)[Neu5Ac(a2-3)Gal(b1-4)GlcNAc(b1-6)]Man(a1-6)]Man(b1-4)GlcNAc(b1-4)GlcNAc
# Summary of the method: as §1
# [23] = biological target: Neu5Ac(a2-3)Gal(b1-4)GlcNAc(b1-2)[Neu5Ac(a2-3)Gal(b1-4)GlcNAc(b1-4)]Man(a1-3)[GlcNAc(b1-4)][Neu5Ac(a2-3)Gal(b1-4)GlcNAc(b1-4)Man(a1-6)]Man(b1-4)GlcNAc(b1-4)GlcNAc
# Summary of the method: as §1
# [24] = biological target: Neu5Ac(a2-3)Gal(b1-4)GlcNAc(b1-2)[Neu5Ac(a2-3)Gal(b1-4)GlcNAc(b1-6)]Man(a1-6)[Neu5Ac(a2-3)Gal(b1-4)GlcNAc(b1-2)Man(a1-3)]Man(b1-4)GlcNAc(b1-4)GlcNAc
# Summary of the method: as §1
# [25] = biological target: Neu5Ac(a2-3)Gal(b1-4)GlcNAc(b1-2)[Neu5Ac(a2-3)Gal(b1-4)GlcNAc(b1-6)]Man(a1-6)[Neu5Ac(a2-3)Gal(b1-4)GlcNAc(b1-2)Man(a1-3)][GlcNAc(b1-4)]Man(b1-4)GlcNAc(b1-4)GlcNAc
# Summary of the method: as §1
# [26] = biological target: Neu5Ac(a2-3)Gal(b1-4)GlcNAc(b1-3)Gal
# Summary of the method: as §1
# [27] = biological target: Neu5Ac(a2-3)Gal(b1-4)GlcNAc(b1-3)Gal(b1-3)GlcNAc
# Summary of the method: as §1
# [28] = biological target: Neu5Ac(a2-3)Gal(b1-4)GlcNAc(b1-3)Gal(b1-4)GlcNAc
# Summary of the method: as §1
# [29] = biological target: Neu5Ac(a2-3)Gal(b1-4)GlcNAc(b1-3)Gal(b1-4)GlcNAc(b1-2)Man(a1-3)[Neu5Ac(a2-3)Gal(b1-4)GlcNAc(b1-3)Gal(b1-4)GlcNAc(b1-2)Man(a1-6)]Man(b1-4)GlcNAc(b1-4)GlcNAc
# Summary of the method: as §1
# [30] = biological target: Neu5Ac(a2-3)Gal(b1-4)GlcNAc(b1-3)Gal(b1-4)GlcNAc(b1-3)Gal(b1-4)GlcNAc
# Summary of the method: as §1
# [31] = biological target: Neu5Ac(a2-3)Gal(b1-4)GlcNAc(b1-3)Gal(b1-4)GlcNAc(b1-3)Gal(b1-4)GlcNAc(b1-2)Man(a1-3)[Neu5Ac(a2-3)Gal(b1-4)GlcNAc(b1-3)Gal(b1-4)GlcNAc(b1-3)Gal(b1-4)GlcNAc(b1-2)Man(a1-6)]GalNAc
# Summary of the method: as §1
# [32] = biological target: Neu5Ac(a2-3)Gal(b1-4)GlcNAc(b1-3)Gal(b1-4)GlcNAc(b1-3)GalNAc
# Summary of the method: as §1
# [33] = biological target: Neu5Ac(a2-3)Gal(b1-4)GlcNAc(b1-3)Gal(b1-4)GlcNAc(b1-3)[Neu5Ac(a2-3)Gal(b1-4)GlcNAc(b1-3)Gal(b1-4)GlcNAc(b1-6)]GalNAc
# Summary of the method: as §1
# [34] = biological target: Neu5Ac(a2-3)Gal(b1-4)GlcNAc(b1-3)Gal(b1-4)GlcNAc(b1-6)[Gal(b1-3)]GalNAc
# Summary of the method: as §1
# [35] = biological target: Neu5Ac(a2-3)Gal(b1-4)GlcNAc(b1-3)Gal(b1-4)[Fuc(a1-3)]GlcNAc
# Summary of the method: as §1
# [36] = biological target: Neu5Ac(a2-3)Gal(b1-4)GlcNAc(b1-3)GalNAc
# Summary of the method: as §1
# [37] = biological target: Neu5Ac(a2-3)Gal(b1-4)GlcNAc(b1-3)[Neu5Ac(a2-3)Gal(b1-4)GlcNAc(b1-6)]GalNAc
# Summary of the method: as §1
binder,measurement,setting,value
B1,glycan array binding signal (z-score),[1],-0.463
same,glycan array binding signal (z-score),[2],-0.258
same,glycan array binding signal (z-score),[3],-0.591
same,glycan array binding signal (z-score),[4],-0.339
same,glycan array binding signal (z-score),[5],-0.726
same,glycan array binding signal (z-score),[6],-0.638
same,glycan array binding signal (z-score),[7],-0.329
same,glycan array binding signal (z-score),[8],0.052
same,glycan array binding signal (z-score),[9],-0.029
same,glycan array binding signal (z-score),[10],-0.39
same,glycan array binding signal (z-score),[11],0.158
same,glycan array binding signal (z-score),[12],-0.154
same,glycan array binding signal (z-score),[13],-0.238
same,glycan array binding signal (z-score),[14],0.335
same,glycan array binding signal (z-score),[15],0.09
same,glycan array binding signal (z-score),Neu5Ac(a2-3)Gal(b1-4)Glc,0.574
same,glycan array binding signal (z-score),[16],-0.425
same,glycan array binding signal (z-score),[17],0.676
same,glycan array binding signal (z-score),[18],-0.784
same,glycan array binding signal (z-score),[19],-0.078
same,glycan array binding signal (z-score),[20],-0.332
same,glycan array binding signal (z-score),[21],-0.098
same,glycan array binding signal (z-score),[22],-0.519
same,glycan array binding signal (z-score),[23],-0.189
same,glycan array binding signal (z-score),[24],-0.331
same,glycan array binding signal (z-score),[25],0.439
same,glycan array binding signal (z-score),[26],-0.371
same,glycan array binding signal (z-score),[27],-0.372
same,glycan array binding signal (z-score),[28],0.461
same,glycan array binding signal (z-score),[29],-0.217
same,glycan array binding signal (z-score),[30],-0.448
same,glycan array binding signal (z-score),[31],1.28
same,glycan array binding signal (z-score),[32],-0.707
same,glycan array binding signal (z-score),[33],0.194
same,glycan array binding signal (z-score),[34],0.584
same,glycan array binding signal (z-score),[35],-0.212
same,glycan array binding signal (z-score),[36],-0.683
same,glycan array binding signal (z-score),[37],0.114
